Experiment in all cases: inhibition of tumour cell growth, NCI panel, 48 h
Test [1] deals with HCT-15 colon.
The test system of test [2] is HT29 colon.
The subject of test [3] is KM12 colon.
Test [4] deals with M19-MEL melanoma.
Test [5] deals with MOLT-4 leukemia.
Test [6] relates to OVCAR-3 ovarian.
Test [7] deals with SR leukemia.

SMILES strings stand for the structures.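 Method: 48-hour compound exposure of cells in 96-well plates, five concentrations, linear interpolation of endpoints. TGI is the concentration that stops growth completely.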 The source holds more than one record for some entries. This is not the full list of results. The source may hold further records. The tests behind the records often covered other concentration ranges, not given here; some values may only mark the edge of a range.

Take `C/C1=C\[C@@H](O)C(=O)/C=C/C=C\c2csc(n2)[C@@H](C)NC(=O)C[C@@]2(CC1)S(=O)SC(=O)[C@]2(C)O` (some centres not stated): the TGI in test [1] is 96.4 nM and 10.1 µM; in test [2], 575 nM and 25.4 nM; in test [3] it was 206 nM and 14.6 nM; in test [4], 155 nM and 12.1 nM; in test [5], 515 nM and > 100 µM; in test [6], 59.2 nM and 11.1 µM. Further, the TGI in test [7] was 336 nM and > 100 µM.

Source of the values: PubChem BioAssay (NCI).
